# Experimental data taken from PubChem BioAssay AID686979 (National Center for Advancing Translational Sciences (NCATS), 2013).
# The whole screen tested about 420,000 compounds, of which about 50,000 (12%) were called active. Inconclusive means that the source gave no clear call. Such entries were picked first, then a sample of the others. Calls follow the shape of the dose curve; as a rule, active = well fitted inhibition curve with a large enough effect; inconclusive = small, poorly fitted or top-dose-only effect; inactive = flat fitted curve, though single readings scatter. No potency is given beside an inconclusive call; the fits are too rough.
# Test: qHTS for Inhibitors of human tyrosyl-DNA phosphodiesterase 1 (TDP1): qHTS in cells in presence of CPT; also: nearly all actives have a fitted effect of over 55% in size
# Settings: chicken DT40 Tdp1-/-;hTDP1 cells + 20 nM CPT, ATP luminescence, 48 h; activity change, negative = growth inhibition: at 46.2 µM (top of the series)
# How it was run: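 Chicken DT40 Tdp1-/- cells stably complemented with human TDP1 were seeded at 400 cells/well in medium containing 20 nM camptothecin, exposed to pin-transferred compounds, and grown at 37 °C for at least 48 hr. Viability was read as ATP luminescence.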
# % is scaled to controls: 0 for no effect and ±100 for the full control effect; potency is read from the fitted curve at half-maximal effect; tags tell the direction and shape of the fitted curve.
SMILES,Potency,"activity change, negative = growth inhibition"
CC(C)c1ccc(N=Cc2c(O)c3ccccc3oc2=O)cc1,"inconclusive [inhibitor, single point]",
CCCCN(CCCC)CCn1cnc2c([nH]c3ccc(OC)cc32)c1=O,"inconclusive [inhibitor, partial curve]",inconclusive: -30.1% [inhibitor]
COc1cccc(C(=O)NCCS(=O)(=O)N2CCC3(CC2)OCCO3)c1,"inconclusive [inhibitor, single point]",
COc1ccc(C(=O)Nc2ccc3c(c2)CCCN3S(=O)(=O)c2ccc(C)cc2)cc1,active: 20.6 µM,
COc1cccc(/C=N/Nc2cc(N3CCOCC3)ncn2)c1O,active: 5.8 µM,
CCCCN(C)c1nc(-c2ccco2)c2c(c1C#N)CC(C)(C)OC2,"inconclusive [inhibitor, single point]",
COc1ccc(CNC(=O)c2ccc(-c3nc(CSc4ccccc4)c(C)o3)cc2)cc1,,inactive: -29.9%
CC(C)c1ccc(C(=O)Nc2ccc(N3CCOCC3)cc2)cc1,active: 18.4 µM,
CN(C)CCn1c(NC(=O)c2ccc(Cl)cc2)nc2ccccc21,"inconclusive [inhibitor, partial curve]",
COc1cc(C#Cc2ccc3cc(CCO)oc(=O)c3c2)cc(OC)c1,"inconclusive [inhibitor, single point]",
O=C(c1ccccc1)N1N=C(c2ccccc2O)CC1c1ccccc1 (stereo not given),active: 20.6 µM,
O=C(NCc1cccc(C(F)(F)F)c1)c1ccc2sc(C3=C[C@@H](O)[C@@H](O)[C@@H](CO)O3)nc2c1,active: 11.6 µM,
O=C(Nc1cccc(F)c1)c1sc(Cl)nc1-c1ccccc1,"inconclusive [inhibitor, single point]",
COc1ccc(CCC(=O)Nc2cccc(S(=O)(=O)N3CCOCC3)c2)cc1OC,active: 14.6 µM,
O=C(c1cccc(F)c1)N1CCC2(CC1)CN(c1ncccn1)C2,"inconclusive [inhibitor, partial curve, poor fit]",
COC(C(=O)N/N=C(\C)c1ccc(C(C)(C)C)cc1)c1ccccc1 (stereo not given),"inconclusive [inhibitor, partial curve]",
O=C(Cn1nc(-c2ccccc2)ccc1=O)Nc1ccc(N2CCN(C(=O)c3cccs3)CC2)cc1,"inconclusive [inhibitor, single point]",
Cc1nc(N2CCN(C)CC2)c2c3c(sc2n1)CCCC3,"inconclusive [inhibitor, single point]",
S=C(Nc1ccccc1Cl)N1CCCC(c2ccccc2)=N1,"inconclusive [inhibitor, single point]",
